In assay [1] the target is T1, rat GHR ECD (L43R), soluble, C-terminal 6His (rat, UniProt P16310 47-256).
T1 construct: also called soluble GHR ECD; rat GHR (L43R) extra cellular domain; not shown: C-terminal 6His tag of pET20b
T1 sequence (looked up): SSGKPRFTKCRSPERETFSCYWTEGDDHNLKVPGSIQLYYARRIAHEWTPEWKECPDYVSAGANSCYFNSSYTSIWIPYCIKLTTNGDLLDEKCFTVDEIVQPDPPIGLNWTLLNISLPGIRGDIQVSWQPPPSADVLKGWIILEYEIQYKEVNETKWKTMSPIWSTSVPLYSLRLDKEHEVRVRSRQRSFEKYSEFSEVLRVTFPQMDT
The assay is described as follows: Biacore SPR; rat GHR ECD (L43R) on CM5 chip, GH injected; bivalent analyte model.

Assay [2] concerns the target T2, human growth hormone receptor on IM-9 cells (human, UniProt P10912 19-638).
T2 sequence (looked up): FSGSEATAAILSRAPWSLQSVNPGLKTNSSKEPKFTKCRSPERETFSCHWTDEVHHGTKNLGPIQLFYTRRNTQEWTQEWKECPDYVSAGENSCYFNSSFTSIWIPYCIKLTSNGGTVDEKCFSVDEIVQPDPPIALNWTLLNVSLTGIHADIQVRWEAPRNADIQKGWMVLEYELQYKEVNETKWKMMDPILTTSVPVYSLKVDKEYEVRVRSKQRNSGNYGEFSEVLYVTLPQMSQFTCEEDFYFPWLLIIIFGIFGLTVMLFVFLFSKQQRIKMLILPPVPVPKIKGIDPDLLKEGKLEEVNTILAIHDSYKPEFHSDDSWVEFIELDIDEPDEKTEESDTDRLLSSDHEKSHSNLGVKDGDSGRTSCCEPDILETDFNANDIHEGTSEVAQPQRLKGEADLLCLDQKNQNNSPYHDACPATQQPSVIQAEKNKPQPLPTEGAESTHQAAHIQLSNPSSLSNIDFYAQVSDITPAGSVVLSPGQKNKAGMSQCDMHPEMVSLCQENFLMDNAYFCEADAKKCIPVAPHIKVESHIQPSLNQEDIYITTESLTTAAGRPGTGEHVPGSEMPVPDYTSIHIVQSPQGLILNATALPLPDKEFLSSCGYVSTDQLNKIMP
The assay is described as follows: cell-based or functional assay.

This is an account of results in patent publication US20060189529A1 (AMBRX, published 2006).

B1: hGH G120R (ligand)
chain: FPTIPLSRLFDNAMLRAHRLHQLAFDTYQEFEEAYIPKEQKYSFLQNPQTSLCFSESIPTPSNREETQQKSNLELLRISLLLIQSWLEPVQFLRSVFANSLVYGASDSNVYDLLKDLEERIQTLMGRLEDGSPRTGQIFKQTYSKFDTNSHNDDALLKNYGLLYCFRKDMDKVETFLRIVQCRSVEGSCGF
notes: also called G120R bearing hGH; hGH antagonist with the G120R substitution
In assay [1], B1 yielded a Kd of 10 nM, a koff of 0.0022 s⁻¹ and a kon of 220000 M⁻¹ s⁻¹. The “EC50 (nM), STAT5 phosphorylation in IM-9 cells” value in assay [2] is above 200000 nM.
